Test results reported in PubChem BioAssay AID2100 (National Center for Advancing Translational Sciences (NCATS), 2009).
Out of some 300,000 compounds screened, about 1,200 (0.4%) were called active. This list was built around the results that the source calls inconclusive (neither active nor inactive); the mix of calls is not that of the screen. Calls come from the whole dose curve; as a rule, active = well fitted inhibition curve with a large enough effect; inconclusive = small, poorly fitted or top-dose-only effect, or another doubt; inactive = no such curve, though single readings can be large or run the other way. Potencies beside an inconclusive call are fits to weak or partial responses and may not hold up.
Potency is the fitted concentration of half-maximal effect.
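Throughout, for activity change, negative = inhibition: 0% = full enzyme reaction and -100% = no-enzyme basal signal.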

The molecules below were run against Lysosomal alpha-glucosidase (Homo sapiens) (UniProt P10253) (assay: qHTS Assay for Inhibitors and Activators of Human alpha-Glucosidase Cleavage of Glycogen). Conditions: recombinant GAA, glycogen substrate, Amplex Red glucose oxidase fluorescence; activity change, negative = inhibition: at 76.4 µM (top of the series) unless noted.
Procedure, shortened: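 Recombinant enzyme (4 nM final) with compounds titrated up to 77 uM and bovine liver glycogen (30 ug) in citrate pH 5.0, 0.01% Tween-20, 37 C 40 min. Released glucose detected by Amplex Red/glucose oxidase (Ex 573/Em 610); AC50 from Hill fits.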
Cc1cc(C)nc(N/N=C/c2cn[nH]c2-c2ccccc2)n1 was tested, and the Potency was inconclusive: 35.5 µM [inhibitor, single point].
For COc1ccc(Nc2c3c(nc4ccccc24)CCCC3)cc1OC, the Potency was inconclusive: 3.55 µM [inhibitor, full curve, poor fit].
With CC1CCN(c2ccc(-c3nc(-c4ccccc4)no3)cc2[N+](=O)[O-])CC1 the Potency was inconclusive: 8.91 µM [inhibitor, single point].
With O=C(Nc1cccc(C(F)(F)F)c1)Nc1cccs1 the Potency was inconclusive: 28.2 µM [inhibitor, partial curve].
With S=C1NNC2(NN1)C1CC3CC(C1)CC2C3 the Potency was inconclusive: 50.1 µM [inhibitor, single point].
For O=C(NC(=S)Nc1cc(S(=O)(=O)N2CCOCC2)ccc1O)c1ccco1, the Potency was inconclusive: 22.4 µM [inhibitor, single point].
For Cc1ccccc1C(=O)Nc1nc(-c2ccc(Br)cc2)ns1, the “activity change, negative = inhibition” value was inactive: 11.3% [at 76.3 µM].
For CCOC(=O)c1c(C)n(-c2ccccc2)c2ccc(OC(=O)c3cccc(Cl)c3)cc12, the “activity change, negative = inhibition” value was inactive: 14.3% [at 76.3 µM].
For Cc1cccc(-n2c(C)c(-c3ccccc3)[nH]c2=S)c1, the Potency was inconclusive: 14.1 µM [inhibitor, partial curve].
With O=C(NCC1CCCO1)c1c(O)c2c([nH]c1=O)CCCC2 (stereo not drawn) the activity change, negative = inhibition was inconclusive: 60.4% [activator].
With C/C(=N\Nc1nc(N)cc(Cl)n1)c1ccc(F)cc1 the Potency was inconclusive: 22.4 µM [inhibitor, partial curve].
For COc1ccccc1NC(=S)N/N=C1\CC(C)(C)Oc2ccc(O)cc21, the Potency was inconclusive: 25.1 µM [inhibitor, partial curve].
For S=c1[nH]nc(CCSCc2ccccc2)n1-c1ccccc1, the Potency was inconclusive: 25.1 µM [inhibitor, partial curve, poor fit].
CN(C)c1ccc(C(CC(=O)O)C(=O)O)cc1 (stereo not drawn) was tested, and the Potency was inconclusive: 15.7 µM [inhibitor, partial curve].
Nc1ccc(C(=O)OCc2nc3cc4ccccc4cc3[nH]2)cc1 was tested, and the activity change, negative = inhibition was inconclusive: 30% [activator].
CC/C(Cc1ccccc1)=N\NC(=O)c1cc([N+](=O)[O-])cc([N+](=O)[O-])c1 was tested, and the Potency was inconclusive: 12.6 µM [inhibitor, partial curve].
For Cc1cccc(C)c1NC(=O)CSCC(=O)O, the “activity change, negative = inhibition” value was inactive: 18.1%.
C/C(N)=C(/C#N)C(=O)CSc1ccc2c(c1)OCCO2 was tested, and the “activity change, negative = inhibition” value was inactive: 7.71%.
For C(=N\Nc1nc(Nc2ccccc2)nc(N2CCOCC2)n1)/c1c[nH]c2ccccc12, the Potency was inconclusive: 1.4 µM [inhibitor, full curve].
For CCOc1ccc(C(c2c(NC(=O)c3ccccc3)sc(C)c2C)N2CCN(C)CC2)cc1 (stereo not drawn), the “activity change, negative = inhibition” value was inactive: -2.6%.
With COc1ccc2[nH]c3c(=O)n(N)c(=O)[nH]c3c2c1 the Potency was inconclusive: 50.1 µM [inhibitor, single point].
CC1(C)CC(NCc2ccncc2)CC(C)(C)N1 was tested, and the Potency was inconclusive: 44.7 µM [activator, single point].
With Oc1ccccc1/C=N/NC(=S)NC1CC2CC1C1C=CCC21 (stereo not drawn) the Potency was inconclusive: 39.8 µM [inhibitor, single point].
CCCN1C(=O)c2ccccc2NC1c1ccc(OC)cc1O (stereo not drawn) was tested, and the Potency was inconclusive: 17.8 µM [inhibitor, partial curve].
With O=C1CC(Nc2ccc(N3CCOCC3)cc2)C(=O)N1c1ccccc1 (stereo not drawn) the Potency was active: 15.7 µM.
In the case of COc1cc(N=Nc2ccc3ccccc3c2)ccc1O, the Potency is reported as inconclusive: 35.5 µM [inhibitor, partial curve].
For COc1ccc(NCc2ccc(OC)c(OC)c2)cc1, the Potency was inconclusive: 15.7 µM [inhibitor, partial curve].
With COc1cc(NC(=O)CSc2cc(=O)n(C)c3ccccc23)cc(OC)c1OC the “activity change, negative = inhibition” value was inactive: 17.4% [at 76.3 µM].
With CCOC(=O)CNC(=O)CSc1nnc(-c2ccco2)n1Cc1ccco1 the Potency was inconclusive: 11.1 µM [activator, partial curve, poor fit].
For c1ccc(-c2cnc(CSc3nnc4ccccn34)o2)cc1, the “activity change, negative = inhibition” value was inactive: -2.6%.
COc1cc(/C=N/Nc2nc(-c3ccc(S(=O)(=O)N(C)C)cc3)cs2)ccc1O was tested, and the Potency was inconclusive: 39.8 µM [inhibitor, partial curve].
In the case of Cc1ccc(NC(=O)N2CC3CCCN3c3ccccc32)cc1C (stereo not drawn), the Potency is reported as inconclusive: 3.16 µM [inhibitor, full curve].
With COc1ccc(/C=N/Nc2nncc3ccccc23)cc1 the Potency was inconclusive: 39.8 µM [inhibitor, single point].
For CN(C)c1ccc(CN(Cc2ccco2)C(=O)COc2ccc(F)cc2)cc1, the Potency was inconclusive: 25.1 µM [inhibitor, partial curve].
With COc1ccc(/C=C/C(=O)NNc2c(F)c(F)cc(F)c2F)cc1OC the Potency was inconclusive: 5.58 µM [inhibitor, full curve].
With CCOc1ccc(NCC(=O)Nc2ccc(Cl)cc2C)cc1 the Potency was inconclusive: 39.5 µM [inhibitor, single point].
With C/C(C/C(C)=C1/SC(=S)NC1=O)=C1\SC(=S)NC1=O the Potency was inconclusive: 28.2 µM [inhibitor, single point].
With Cc1ccc(C(=O)NC(=S)NNC(=O)CCN2CCOCC2)cc1 the Potency was inconclusive: 4.47 µM [inhibitor, full curve].
For Oc1ccc2ccccc2c1CNc1ccccn1, the Potency was inconclusive: 17.8 µM [inhibitor, partial curve].
CCc1ccc(CNc2ncc(-c3cccc(OC)c3)n2C)cc1 was tested, and the Potency was inconclusive: 17.8 µM [inhibitor, single point].
In the case of S=C(NCCc1ccccc1)Nc1ccc(Nc2ccccc2)cc1, the Potency is reported as inconclusive: 39.5 µM [inhibitor, single point].
With COc1ccc(CNC(=O)C2CCCN(S(=O)(=O)N(C)c3ccc(F)cc3)C2)cc1OC (stereo not drawn) the Potency was inconclusive: 11.2 µM [inhibitor, partial curve].
For CCOC(=O)c1c(NC(=O)/C=C/c2ccc(C)o2)sc(C)c1C, the “activity change, negative = inhibition” value was inactive: 2.91%.
For N#C/C(=C\c1ccc(O)c(O)c1)C(=O)NCCCc1ccccc1, the Potency was inconclusive: 39.5 µM [inhibitor, single point].
Cc1ccc(SCc2[nH]nc3c2C2(CCSCC2)C(C#N)=C(N)O3)cc1 was tested, and the Potency was inconclusive: 25.1 µM [inhibitor, partial curve].
In the case of COc1ccccc1/C=C/C(=O)OC(C)CN1CCOCC1 (stereo not drawn), the “activity change, negative = inhibition” value is reported as inactive: -0.795%.
In the case of COc1ccc2[nH]c(C(=O)O)c(NS(=O)(=O)c3ccc(OC)c(OC)c3)c2c1, the Potency is reported as active: 3.98 µM.
With COc1ccc(C(C#N)c2ccc(Cl)nn2)cc1 (stereo not drawn) the Potency was inconclusive: 20 µM [inhibitor, partial curve].
With Clc1cccc(Cl)c1/C=N\Nc1nccs1 the Potency was active: 28.2 µM.
With COc1cc(C2CC(=O)N(Cc3cccc(F)c3)c3ccccc3S2)cc(OC)c1OC (stereo not drawn) the Potency was inconclusive: 50.1 µM [inhibitor, single point].
For COc1cc(C2C(C(=O)c3ccc(C)o3)=C(O)C(=O)N2CCc2ccccc2)ccc1O (stereo not drawn), the Potency was inconclusive: 11.1 µM [inhibitor, partial curve].
For CCCCNC(=S)N(C)N=C1CCC(c2ccccc2)CC1 (stereo not drawn), the Potency was inconclusive: 5.01 µM [inhibitor, full curve].
With Cc1nc2cc(-c3ccccc3)nn2c(C)c1CCC(=O)N1CCN(c2ccc(F)cc2)CC1 the “activity change, negative = inhibition” value was inactive: -8.12% [at 76.3 µM].
In the case of C/C=C1\C(OC2OC(CO)C(O)C(O)C2O)OC=C(C(=O)OC)C1CC(=O)OCC1C(C)C(OC(=O)CC2C(C(=O)OC)=COC(OC3OC(CO)C(O)C(O)C3O)/C2=C\C)CC1C(CO)CO (stereo not drawn), the Potency is reported as inconclusive: 39.8 µM [inhibitor, single point].
For COc1cccc2sc(NNC(=O)C3=COCCO3)nc12, the Potency was inconclusive: 10 µM [inhibitor, full curve].
For CN(C)CCCOC(=O)Cc1ccc(Cl)cc1, the activity change, negative = inhibition was inconclusive: 33.7% [activator].
For O=C(CN1CCSC1=NCc1ccccc1)c1ccc(Cl)c(Cl)c1, the Potency was inconclusive: 35.5 µM [inhibitor, partial curve].
In the case of S=c1[nH]nc(-c2cccs2)n1Cc1ccccc1, the Potency is reported as inconclusive: 56.2 µM [inhibitor, partial curve].
In the case of COc1ccc(-c2nc3nc(C)cc(C)n3c2Nc2c(C)cccc2C)cc1, the Potency is reported as inconclusive: 2.24 µM [inhibitor, full curve].
In the case of COc1cc(/C=N/NC(=O)c2nonc2C)ccc1O, the Potency is reported as inconclusive: 25.1 µM [inhibitor, single point].
CNC(=S)NNc1nc(C)cc(C)n1 was tested, and the Potency was inconclusive: 12.6 µM [inhibitor, partial curve].
For Cn1c(N)c(C(=O)COC(=O)C2CCN(S(=O)(=O)c3cccs3)CC2)c(=O)n(C)c1=O, the Potency was inconclusive: 12.6 µM [inhibitor, partial curve].
Cc1cc(C)nc(N/N=C2/CCCC/C2=C\c2ccccc2)n1 was tested, and the Potency was inconclusive: 10 µM [inhibitor, partial curve].
COc1ccc(-n2c(CN3CCN(Cc4ccccc4)CC3)nc3ccc([N+](=O)[O-])cc3c2=O)c(OC)c1 was tested, and the Potency was inconclusive: 50.1 µM [activator, single point].
In the case of CCC(C)n1c(=O)c2sccc2n2c(CCCC(=O)N3CCN(c4ccccc4)CC3)nnc12 (stereo not drawn), the “activity change, negative = inhibition” value is reported as inactive: -13% [at 76.3 µM].
CCOC(=O)C(=NCCOC)NNc1cc(Cl)ccc1Cl was tested, and the Potency was inconclusive: 35.5 µM [inhibitor, single point].
For Fc1ccc(/C=N/Nc2nn[nH]n2)cc1, the Potency was inconclusive: 8.84 µM [inhibitor, full curve].
In the case of COC(=O)CCc1sc(Nc2ccc(Br)cc2)nc1-c1ccc(OC)cc1, the Potency is reported as inconclusive: 28.2 µM [inhibitor, partial curve].
